The source gives no read counts; variants with many changes may rest on few reads.
B1: LINE1-mini (parent)
chain: GGCAGAGCUCAACACAGCGUGGCAAAGUGGCUGUGGCUAGACUGCC

Variants of: B1
Assay: self-cleavage, relative activity (ratio to wild type); higher = more cleavage; in vitro, sequencing; the parent is a self-cleaving ribozyme

Row | Variant | self-cleavage
1 | GGCAGCGCCCAACACAGCGUGGCACAGUGGCUGUGGCUAGACAGCC | 0.02
2 | GGCAGCGCCCAAUACAGCGUGGCAAAGUGGCUGUGGCUAGACUGCC | 0.01
3 | GGCAGCGCCCAACAGAGCGUGGCAAAGGGACUGUGGCUAGACUGCG | 0.01
4 | GGCAGCGCGGAACACAGCGCGGCAAAGUGGCUGUGGUUAGACUGCC | 0.01
5 | GGCAGCGCGCAACACAGCUUGGCAAAGUGGCUGUGGCUAGACUGCC | 0.1
6 | GGCAGCGCUCAACACAGCGAGGGAAAGUGGCUGUGGCUAGACUGCC | 0.07
7 | GGCAGCGCUCAACACAGCGCGGCUAAGUGGCUGUGGCUAGACUUCC | 0.23
8 | GGCAGCGCUCAACACAGCGCGGCAAAGUGGCUGUGGUUAGACUGCC | 0.05
9 | GGCAGCGCUCAACACAGCGGGGCAGAGUGGCUGUGGCUAGACUGCC | 0.12
10 | GGCAGCGCUCAACACAGCGGGGCAAAGUGGCUGUGGCCAUACUGCC | 0.01
11 | GGCAGCGCUCAACACAGCGUGGCAAAGAGGCUGUGCCUAGACUGCC | 0.12
12 | GGCAGCGCUCAACACAGCGUGGCAAAGUGGCAGUGGCUGCACCGCC | 0.03
13 | GGCAGCGCUCAACACAGCGUGGCAAAGUGGCAGUGGCUAAACUGCC | 0.01
14 | GGCAGCGCUCAACACAGCGUGGCAAAGUGGCGGUGGCUAGAAUGCC | 0.06
15 | GGCAGGGCUCCACACAGCGUGGCAUAGCGGCUGUGGCUAGACUACC | 0.01
16 | GGCAGGGCUCCACACAUCGUGGCAACGUGGCUGUGGCUAGACUGCC | 0.02
17 | GGCAGGGCUCCACACAGCGUGUCAACGUGGCUGUGGCUAGACUGCC | 0
18 | GGCAGGGCUCGACACAGCGUGGCCAACUGUCCGUGGCUAGACUGCC | 0.01
19 | GGCAGGGCUCGACACAGCCUAGCAAAGUGCCUUUGGCUAGACUGCC | 0

Row | Variant | self-cleavage
20 | GGCAGGGCUCGACACAGCGUGGCAAAGAGGCUGUGGCUGGACUGCC | 0.01
21 | GGCAGGGCUCUUCACAGCGUGGCAAAGUGGCUGUGCCUAGACUGCC | 0.02
22 | GGCAGGGCUCUACACUGCGUGGCAAAGUGCCUGUGGCUAGACUGCC | 0.03
23 | GGCAGGGCUCUACACAGUAUGGCAAAGUGGCUGUGGCUAGACUGGC | 0.02
24 | GGCAGGGCUCUACACAUCGUGGCAAAUUGGUAGUGGCUAGACUGCC | 0
25 | GGCAGGGCUCUACACAGCAUGGCAAAGUGGCUGUGUCUAGACUGCC | 0.01
26 | GGCAGGGCUCUACACAGCGUGGCAAAGUCGCUGUGGCUAGACUUCC | 0.02
27 | GGCAGGGCUCACCACAGAGUGGCAAAGUGGCUGUGGCUAAACUGCC | 0.02
28 | GGCAGGGCUCACCACAGCGUGCCAAAGUGGCUUUUGCUAGACUGCC | 0.04
29 | GGCAGGGCUCACCACAGCGUGGCAAAGUGGCUGUGGCAAGACUGCC | 0.03
30 | GGCAGGGCUCAGCACCGCGUGGCAUAGUGGCUGUCGCUAGACUGCC | 0.08
31 | GGCAGGGCUCAGCACAACGUGGCAAAGUGGCUGUGGCUAGACAGCC | 0.02
32 | GGCAGGGCUCAGCACAGCCUGGCAAAGCGGCUGUGGCUAGACUGCC | 0.02
33 | GGCAGGGCUCAGCACAGCGUGGCAAAGUGCCUGCGGCUAGACUGCC | 0.03
34 | GGCAGGGCUCAGCACAGCGUGGCAAAGUGUCUGUGACUAGACUGCC | 0.01
35 | GGCAGGGCUCAGCACAGCGUGGCAAAGAGGCUGUGGCUAGACCGCA | 0
36 | GGCAGGGCUCAUCACAGCUUGGCAGAGUGGCUUUGGCUAGACCGCC | 0.02
37 | GGCAGGGCUCAACUCAGCGUGGCAACUUUGCUGUGGCUAUACUGCC | 0.1
38 | GGCAGGGCUCAACUCAGCGUGGUAAAGUGGCUGUGGCUAGACUGCA | 0.01

Row | Variant | self-cleavage
39 | GGCAGGGCUCAACACCGCGUGGCAAAGUGGCUGUGGCUAGACUGUC | 0.09
40 | GGCAGGGCUCAACACCGCGUGACAAAGUGGCUGUUGCUAGACUGCC | 0.01
41 | GGCAGGGCUCAACACCGCGUGGCAAAGUGGCUCUGCCUAGAAAGUC | 0
42 | GGCAGGGCUCAACACUGCGUGGCGAAGUUGCUGUGGCUAGACUGCC | 0.11
43 | GGCAGGGCUCAACACUGAGUGGCAAAGUGGCUGUGACUAGACUGCC | 0.04
44 | GGCAGGGCUCAACACUGCUUGGCAAAGUGGCUAUGGUUAGACUGCC | 0.03
45 | GGCAGGGCUCAACACUGCGUAGCAAAGUGGCUGUGGCUAGACUGCC | 0.01
46 | GGCAGGGCUCAACACUGCGUGGCAAAGUGGCUGUGGCGAUACUGGC | 0.02
47 | GGCAGGGCUCAACACAGCGUGGCCAAGUGUCUGUGGCUAGACUGCC | 0.06
48 | GGCAGGGCUCAACACAGCGUGGCCAAGAGGCUGUGUCAAGACUGCC | 0.01
49 | GGCAGGGCUCAACACAGCGUGGCGAAGUGGCUGUGGCUAGACAGCA | 0.08
50 | GGCAGGGCUCAACACAGCGUGGCACAGUGGCUGUGGCUAGACUGGC | 0.03
51 | GGCAGGGCUCAACACAGCGUGGCAGAGUAGCUGUGGCUAGACUGCC | 0.02
52 | GGCAGGGCUCAACACAGCGUGGCAUAGUGGCUGUUGUUAGACUGCC | 0.03
53 | GGCAGGGCUCAACACAGCGUGGCAUAGUGGCUGUGGCUAGACUACC | 0.22
54 | GGCAGGGCUCAACACAGCGUGGCAUAGGGGAUGGGGCUAGACUGCC | 0.01
55 | GGCAGGGCUCAACACAGCGUGGCAUAGUGGCUGGGGCUAGACUGCC | 0.03
56 | GGCAGGGCUCAACACAGCGUGGCAACGUGGCUGUGGCUGGACUGCC | 0

From the RNAGym collection of RNA variant scans (doi:10.7554/elife.90254)
